# From article PMC7819943, “Rice protein-binding microarrays: a tool to detect cis-acting elements near promoter regions in rice”
# Some of the results follow.
# Biological target: T1, OsWOX13 (Oryza sativa, UniProt Q5QMM3 1-267)
# T1 sequence: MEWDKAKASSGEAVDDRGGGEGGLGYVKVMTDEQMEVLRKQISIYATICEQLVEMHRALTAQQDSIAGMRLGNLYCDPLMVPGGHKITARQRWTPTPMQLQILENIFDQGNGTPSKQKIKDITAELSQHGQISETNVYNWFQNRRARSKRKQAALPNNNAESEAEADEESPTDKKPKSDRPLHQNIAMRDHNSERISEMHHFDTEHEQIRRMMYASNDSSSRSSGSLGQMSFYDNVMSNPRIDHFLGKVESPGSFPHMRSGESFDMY
# Experiment: protein-binding microarray (RPBM); PBS, 2% BSA, 51.3 ng/ul salmon testes DNA, 50 uM zinc acetate, 200 nM TF, 25 C, 1 h; high values mean tight binding
# Conditions: protein: recombinant; tags: N-terminal polyhistidine and DsRed monomer fusion (pET32a); label: CyDye5-dUTP incorporated in the synthesized complementary strand; 3' TTTTT single-stranded linker to array surface; dsDNA, one strand shown
# In short: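 Binding signal is reported as fluorescence intensity per feature (arbitrary units) from an Axon 4000B scanner. Incubation used 200 nM of each Ni–NTA-purified, N-terminally polyhistidine- and DsRed-fused transcription factor from E. coli BL21-CodonPlus on a double-stranded custom Agilent array for 1 h at 25 °C, with 50 µM zinc acetate in the buffer, followed by washing.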
row,Sequence,binding signal
1,TGATAACTAACAATTTTGGTACTAAACCGATGGTCTAAGTCGGAGTCACCTAGTGCAG,4060 fluorescence intensity (a.u.)
2,ATGATCCTTTAATTGTCATGCAGCGCTTGACTGTTCCTTTCGGAGTCACCTAGTGCAG,3650 fluorescence intensity (a.u.)
3,AGAGAATTATAAATTGAGTATTATTTATTACAAACCTATACGGAGTCACCTAGTGCAG,6560 fluorescence intensity (a.u.)
4,TTAATGTTAAATTTAATGAAACTAATTTAGTGTTGTAGATCGGAGTCACCTAGTGCAG,27000 fluorescence intensity (a.u.)
5,ATTAAAATAAATTACTCTAATGTCATTCTAGGGCATTCTACGGAGTCACCTAGTGCAG,9830 fluorescence intensity (a.u.)
6,CATCTTTGACCGGTTAAATTAGATCCTGTTCTAGATGAGGCGGAGTCACCTAGTGCAG,3480 fluorescence intensity (a.u.)
7,GTTTAAATTTGAATAGTGTAAGGGTCAATTTTATTCGAGACGGAGTCACCTAGTGCAG,5050 fluorescence intensity (a.u.)
8,GATTTTCTATGTCAAAAGGATAATTATTAATGCTAGCAATCGGAGTCACCTAGTGCAG,3690 fluorescence intensity (a.u.)
9,ATGGAAATTGATTAGGAGATTATTGATGCGATAAGTAGTACGGAGTCACCTAGTGCAG,37000 fluorescence intensity (a.u.)
10,GAAATTAATTTAGCTCTACATCCGTTCTGTTTATGAATAACGGAGTCACCTAGTGCAG,29700 fluorescence intensity (a.u.)
11,GTAAAGTTATTGCAAAATTTAAAATTACGTTGTCATTGTACGGAGTCACCTAGTGCAG,3930 fluorescence intensity (a.u.)
12,ATGCCTAATTAATAGATAACTGTCATGTCGCATCCTTCTTCGGAGTCACCTAGTGCAG,28700 fluorescence intensity (a.u.)
13,CTCTGATTGGTTACAAACTTTATAGTTCTTTAGGGAGGCTCGGAGTCACCTAGTGCAG,49700 fluorescence intensity (a.u.)
14,CATTTAATGATTAATTTATTATTTAAATATTATTGAAATGCGGAGTCACCTAGTGCAG,50700 fluorescence intensity (a.u.)
15,CATAACACACGACAATTGACAAGCGAAACGCCATGGGAAACGGAGTCACCTAGTGCAG,6850 fluorescence intensity (a.u.)
16,GTCAATTACCAAGTTCATTCATAATTTGAAGTTACGGGCACGGAGTCACCTAGTGCAG,10800 fluorescence intensity (a.u.)
17,ATAATTGAAGAAAGCTCGATTGGTTTCTTAGTTTCTAGATCGGAGTCACCTAGTGCAG,19000 fluorescence intensity (a.u.)
18,GAGATTAGTTGATTTAGATTTTGAATTGTGCAAAACCGTTCGGAGTCACCTAGTGCAG,32000 fluorescence intensity (a.u.)
19,ATAAAAGATATGATTGAGATCAACAGCGAAATGACAAAATCGGAGTCACCTAGTGCAG,20600 fluorescence intensity (a.u.)
20,GGTTAACGAGATGATAATCGTCCCATGACTTGGAACAAATCGGAGTCACCTAGTGCAG,5240 fluorescence intensity (a.u.)
21,CTTCAAGTTTAACTAAACATAAATTGATCATTATCAAAATCGGAGTCACCTAGTGCAG,7200 fluorescence intensity (a.u.)

row,Sequence,binding signal
1,TTTTAGGTACCACTGTCTACTATGACAACAGTGATGGTCGCGGAGTCACCTAGTGCAG,8250 fluorescence intensity (a.u.)
2,ATGCTCGTGATTACTTCGCCAATCTTAAAATATATTACCCCGGAGTCACCTAGTGCAG,16600 fluorescence intensity (a.u.)
3,TCGCAGACTGAATTTTCATTGTAAGGTACGTATAGCTGGTCGGAGTCACCTAGTGCAG,3330 fluorescence intensity (a.u.)
4,ATATTATATACTAAATTAACTTATTTTGAATTGGAGGATCCGGAGTCACCTAGTGCAG,3590 fluorescence intensity (a.u.)
5,CATTTTGTAATTTGCCCTTGAACATGTGTTGTTACAATTTCGGAGTCACCTAGTGCAG,3150 fluorescence intensity (a.u.)
6,TTCTTTAATTTCTTCGGTAATTTAAGGCTGCGTAGCGAGTCGGAGTCACCTAGTGCAG,26800 fluorescence intensity (a.u.)
7,ATAATGTTATCCCTAATCACTGTATTAGTAAATTACCGATCGGAGTCACCTAGTGCAG,7820 fluorescence intensity (a.u.)
8,CAGAAATGATTAAAATCTTGGCAGGATACAGGTGTTTTCTCGGAGTCACCTAGTGCAG,17100 fluorescence intensity (a.u.)
9,TTGACTGAATTTAGGGGCAGAAGGTTTTGTGGTTGATGGACGGAGTCACCTAGTGCAG,9600 fluorescence intensity (a.u.)
10,AAACTCACATTTGATTGCAATTTGCTGCAACGTGTACAGTCGGAGTCACCTAGTGCAG,17700 fluorescence intensity (a.u.)
11,ATATGCAGATATAATAAATTAATTAAATATAGCAGGAGGACGGAGTCACCTAGTGCAG,11500 fluorescence intensity (a.u.)
12,GTTAACATCACAGTTTAATCGGAATGCCAAATTAGTATATCGGAGTCACCTAGTGCAG,3300 fluorescence intensity (a.u.)
13,AATTCAATTTAAAATATTTTAAGCTAATACTTAATTAATCCGGAGTCACCTAGTGCAG,10600 fluorescence intensity (a.u.)
14,TTTCAATTATCAACATACTCTTGCGCACATAACCTAGATGCGGAGTCACCTAGTGCAG,10500 fluorescence intensity (a.u.)
15,AATCTCAAATTATTAGTTTAATTATAAATTTAAAACAATTCGGAGTCACCTAGTGCAG,10900 fluorescence intensity (a.u.)
16,AATAATTATCACAAATCCAACTGTTTAGCAATTTAACACACGGAGTCACCTAGTGCAG,23800 fluorescence intensity (a.u.)
17,TTTGTTTTCTACTTAATTGACCATACTCCAGTCCTACTCCCGGAGTCACCTAGTGCAG,11800 fluorescence intensity (a.u.)
18,GTGTTTAATTATATCGACTTTAATTACCTCTCACAAACCACGGAGTCACCTAGTGCAG,23600 fluorescence intensity (a.u.)
19,TATAAGTGACAGATCCGAGACGTGGTTCTCGATCCGACGACGGAGTCACCTAGTGCAG,3690 fluorescence intensity (a.u.)
20,CATCTAATTTAAATTTAAATGTTTTAAAAGATAGAGACGTCGGAGTCACCTAGTGCAG,52400 fluorescence intensity (a.u.)
21,CCATTGATTTTAGATGCAACTAATCAAACACTTATCCATGCGGAGTCACCTAGTGCAG,30300 fluorescence intensity (a.u.)
